# The other results are listed elsewhere or left out.
# B1: Tulipa lectin C-1 (Tulipa hybrid) (protein)
# chain: MGMALVVALAVALASTVAGQQNVLLSGNTLANEESLSYGSVKFIMQNDCNLVLYGGGFQSNTASNGKKCTLTLNNNGHLIINDGLTGRVVWRNSNAQNPVGRYAAVLRPAPGTADVAIYGPAIWSTNDEFSYQESGVVPHKLGRETPNLPRMQNLLFSGQTLYGTDGMLSSNDGSTTFELSKCQLSLSLGNEVKWKVAPTVENGKENYCHVRLDHRGHLSLLNDDNVVLFRSIPTNGVEPPIGDYVLIVEKGAGYIYGPPIWNTYDNRRYKVASA
# How the values were obtained:
# Assay in all cases: glycan array binding signal (z-score within array); higher = stronger binding
# Settings in all cases: glycan notation: IUPAC condensed, linker removed
# Gal(a1-4)GlcNAc = molecular target: Gal(a1-4)GlcNAc
# Outline: (§1)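 Glycan array data came from 3228 arrays in the Consortium for Functional Glycomics database, and only arrays with an available protein sequence were kept. Glycan names were put into IUPAC-condensed notation, and columns mapping to the same glycan were averaged. The binding signal is a within-array Z-score, averaged across arrays of one protein sequence run at different concentrations or buffers and across linkers. A negative Z-score can be read as non-binding.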
# Gal(a1-6)Glc = molecular target: Gal(a1-6)Glc
# Outline: as §1
# Gal(b1-2)Gal = molecular target: Gal(b1-2)Gal
# Outline: as §1
# Gal(b1-3)Gal = molecular target: Gal(b1-3)Gal
# Outline: as §1
# Gal(b1-3)GalNAc = molecular target: Gal(b1-3)GalNAc
# Outline: as §1
# [1] = molecular target: Gal(b1-3)GalNAc(b1-3)Gal(a1-4)Gal(b1-4)Glc
# Outline: as §1
# [2] = molecular target: Gal(b1-3)GalNAc(b1-3)Gal(b1-4)Glc
# Outline: as §1
# [3] = molecular target: Gal(b1-3)GalNAc(b1-3)Gal(b1-4)GlcNAc
# Outline: as §1
# [4] = molecular target: Gal(b1-3)GalNAc(b1-4)Gal(b1-4)Glc
# Outline: as §1
# [5] = molecular target: Gal(b1-3)GalNAc(b1-4)[Neu5Ac(a2-3)]Gal(b1-4)Glc
# Outline: as §1
# [6] = molecular target: Gal(b1-3)[Fuc(a1-4)]GlcNAc
# Outline: as §1
# [7] = molecular target: Gal(b1-3)[Fuc(a1-4)]GlcNAc(b1-3)Gal(b1-4)GlcNAc
# Outline: as §1
# [8] = molecular target: Gal(b1-3)[Fuc(a1-4)]GlcNAc(b1-3)Gal(b1-4)[Fuc(a1-3)]GlcNAc
# Outline: as §1
# [9] = molecular target: Gal(b1-3)[GlcNAc(b1-6)]GalNAc
# Outline: as §1
# [10] = molecular target: Gal(b1-3)[GlcNAc(b1-6)]GlcNAc
# Outline: as §1
# [11] = molecular target: Gal(b1-3)[Neu5Ac(a2-6)]GalNAc
# Outline: as §1
# [12] = molecular target: Gal(b1-3)[Neu5Ac(a2-6)]GlcNAc
# Outline: as §1
# [13] = molecular target: Gal(b1-3)[Neu5Ac(a2-6)]GlcNAc(a1-4)Gal(b1-4)Glc
# Outline: as §1
# [14] = molecular target: Gal(b1-3)[Neu5Ac(b2-6)]GlcNAc
# Outline: as §1
# [15] = molecular target: Gal(b1-4)GalNAc(a1-3)[Fuc(a1-2)]Gal(b1-4)GlcNAc
# Outline: as §1
# [16] = molecular target: Gal(b1-4)GalNAc(b1-3)[Fuc(a1-2)]Gal(b1-4)GlcNAc
# Outline: as §1
# Gal(b1-4)Glc = molecular target: Gal(b1-4)Glc
# Outline: as §1
# Gal(b1-4)Glc6S = molecular target: Gal(b1-4)Glc6S
# Outline: as §1
# Gal(b1-4)GlcNAc = molecular target: Gal(b1-4)GlcNAc
# Outline: as §1
# [17] = molecular target: Gal(b1-4)GlcNAc(b1-2)Man(a1-3)[Gal(b1-4)GlcNAc(b1-2)Man(a1-6)]Man(b1-4)GlcNAc(b1-4)GlcNAc
# Outline: as §1
# [18] = molecular target: Gal(b1-4)GlcNAc(b1-3)Gal(b1-4)Glc
# Outline: as §1
# [19] = molecular target: Gal(b1-4)GlcNAc(b1-3)Gal(b1-4)GlcNAc
# Outline: as §1
# [20] = molecular target: Gal(b1-4)GlcNAc(b1-3)Gal(b1-4)GlcNAc(b1-3)Gal(b1-4)GlcNAc
# Outline: as §1
# [21] = molecular target: Gal(b1-4)GlcNAc(b1-3)Gal(b1-4)[Fuc(a1-3)]GlcNAc(b1-3)Gal(b1-4)[Fuc(a1-3)]GlcNAc
# Outline: as §1
# [22] = molecular target: Gal(b1-4)GlcNAc(b1-3)GalNAc
# Outline: as §1
# [23] = molecular target: Gal(b1-4)GlcNAc(b1-3)[Gal(b1-4)GlcNAc(b1-6)]GalNAc
# Outline: as §1
# [24] = molecular target: Gal(b1-4)GlcNAc(b1-6)GalNAc
# Outline: as §1
# [25] = molecular target: Gal(b1-4)GlcNAc(b1-6)[Gal(b1-3)]GalNAc
# Outline: as §1
# [26] = molecular target: Gal(b1-4)GlcNAc(b1-6)[Gal(b1-3)]GlcNAc
# Outline: as §1
# Gal3S(b1-3)GalNAc = molecular target: Gal3S(b1-3)GalNAc
# Outline: as §1
# Gal3S(b1-3)GlcNAc = molecular target: Gal3S(b1-3)GlcNAc
# Outline: as §1
# [27] = molecular target: Gal3S(b1-3)[Fuc(a1-4)]GlcNAc
# Outline: as §1
# Gal3S(b1-4)Glc = molecular target: Gal3S(b1-4)Glc
# Outline: as §1
# Gal3S(b1-4)Glc6S = molecular target: Gal3S(b1-4)Glc6S
# Outline: as §1
# Gal3S(b1-4)GlcNAc = molecular target: Gal3S(b1-4)GlcNAc
# Outline: as §1
# Gal3S(b1-4)GlcNAc6S = molecular target: Gal3S(b1-4)GlcNAc6S
# Outline: as §1
# Gal3S6S(b1-4)GlcNAc = molecular target: Gal3S6S(b1-4)GlcNAc
# Outline: as §1
# Gal3S6S(b1-4)GlcNAc6S = molecular target: Gal3S6S(b1-4)GlcNAc6S
# Outline: as §1
# Gal4S(b1-4)GlcNAc = molecular target: Gal4S(b1-4)GlcNAc
# Outline: as §1
# Gal4S6S(b1-4)GlcNAc = molecular target: Gal4S6S(b1-4)GlcNAc
# Outline: as §1
binder,measurement,setting,value
B1,glycan array binding signal (z-score),Gal(a1-4)GlcNAc,-0.189
same,glycan array binding signal (z-score),Gal(a1-6)Glc,-0.147
same,glycan array binding signal (z-score),Gal(b1-2)Gal,-0.164
same,glycan array binding signal (z-score),Gal(b1-3)Gal,-0.202
same,glycan array binding signal (z-score),Gal(b1-3)GalNAc,-0.216
same,glycan array binding signal (z-score),[1],-0.226
same,glycan array binding signal (z-score),[2],-0.226
same,glycan array binding signal (z-score),[3],-0.219
same,glycan array binding signal (z-score),[4],-0.163
same,glycan array binding signal (z-score),[5],-0.159
same,glycan array binding signal (z-score),[6],-0.198
same,glycan array binding signal (z-score),[7],-0.222
same,glycan array binding signal (z-score),[8],-0.225
same,glycan array binding signal (z-score),[9],-0.229
same,glycan array binding signal (z-score),[10],-0.226
same,glycan array binding signal (z-score),[11],-0.224
same,glycan array binding signal (z-score),[12],-0.222
same,glycan array binding signal (z-score),[13],-0.23
same,glycan array binding signal (z-score),[14],-0.219
same,glycan array binding signal (z-score),[15],-0.129
same,glycan array binding signal (z-score),[16],-0.211
same,glycan array binding signal (z-score),Gal(b1-4)Glc,-0.211
same,glycan array binding signal (z-score),Gal(b1-4)Glc6S,-0.208
same,glycan array binding signal (z-score),Gal(b1-4)GlcNAc,-0.225
same,glycan array binding signal (z-score),[17],5.37
same,glycan array binding signal (z-score),[18],-0.193
same,glycan array binding signal (z-score),[19],-0.137
same,glycan array binding signal (z-score),[20],-0.242
same,glycan array binding signal (z-score),[21],-0.223
same,glycan array binding signal (z-score),[22],-0.23
same,glycan array binding signal (z-score),[23],-0.131
same,glycan array binding signal (z-score),[24],-0.157
same,glycan array binding signal (z-score),[25],-0.242
same,glycan array binding signal (z-score),[26],-0.225
same,glycan array binding signal (z-score),Gal3S(b1-3)GalNAc,-0.174
same,glycan array binding signal (z-score),Gal3S(b1-3)GlcNAc,-0.18
same,glycan array binding signal (z-score),[27],-0.07
same,glycan array binding signal (z-score),Gal3S(b1-4)Glc,-0.179
same,glycan array binding signal (z-score),Gal3S(b1-4)Glc6S,-0.182
same,glycan array binding signal (z-score),Gal3S(b1-4)GlcNAc,-0.154
same,glycan array binding signal (z-score),Gal3S(b1-4)GlcNAc6S,-0.206
same,glycan array binding signal (z-score),Gal3S6S(b1-4)GlcNAc,-0.168
same,glycan array binding signal (z-score),Gal3S6S(b1-4)GlcNAc6S,-0.02
same,glycan array binding signal (z-score),Gal4S(b1-4)GlcNAc,-0.184
same,glycan array binding signal (z-score),Gal4S6S(b1-4)GlcNAc,-0.176

# — the supplement of paper PMC8728848
